Some of the results follow.
B1: Q9UKT9 (peptide)
chain: FRCNQCGRMFTQKGNLLRHIKL
B2: Q9UKT9 (peptide)
chain: FHCPICGHEFTQKGNLLRHIKL
B3: Q9UKT9 (peptide)
chain: FLCPICGHVFTQKGNLLRHIKL
B4: Q9UKT9 (peptide)
chain: FSCDVCGAKFTQKGNLLRHIKL
B5: Q9UKT9 (peptide)
chain: FYCPICGHPFTQKGNLLRHIKL
B6: Q9UKT9 (peptide)
chain: FRCPICGRYFTQKGNLLRHIKL
B7: Q9UKT9 (peptide)
chain: FLCNQCGHHFTQKGNLLRHIKL
B8: Q9UKT9 (peptide)
chain: LECPICGFRCTQKGNLLRHIKL
B9: Q9UKT9 (peptide)
chain: FVCNVCGAGFTQKGNLLRHIKL
B10: Q9UKT9 (peptide)
chain: FDCEQCGALFTQKGNLLRHIKL
B11: Q9UKT9 (peptide)
chain: FTCEVCGAAFTQKGNLLRHIKL
B12: Q9UKT9 (peptide)
chain: FGCPICGAHFTQKGNLLRHIKL
B13: Q9UKT9 (peptide)
chain: FHCNICGAQFTQKGNLLRHIKL
B14: Q9UKT9 (peptide)
chain: FVCEICGRWFTQKGNLLRHIKL
B15: Q9UKT9 (peptide)
chain: FKCEQCGARFTQKGNLLRHIKL
B16: Q9UKT9 (peptide)
chain: FWCDVCGAEFTQKGNLLRHIKL
B17: Q9UKT9 (peptide)
chain: FKCEICGAKFTQKGNLLRHIKL
B18: Q9UKT9 (peptide)
chain: FFCPICGHQFTQKGNLLRHIKL
B19: Q9UKT9 (peptide)
chain: FRCEVCGAGFTQKGNLLRHIKL
B20: Q9UKT9 (peptide)
chain: FDCDVCGAMFTQKGNLLRHIKL
B21: Q9UKT9 (peptide)
chain: FWCNQCGHEFTQKGNLLRHIKL
B22: Q9UKT9 (peptide)
chain: FKCDICGASFTQKGNLLRHIKL
B23: Q9UKT9 (peptide)
chain: FYCNQCGHFFTQKGNLLRHIKL
B24: Q9UKT9 (peptide)
chain: FLCEVCGACFTQKGNLLRHIKL
B25: Q9UKT9 (peptide)
chain: FRCNQCGHNFTQKGNLLRHIKL
B26: Q9UKT9 (peptide)
chain: FNCDVCGAIFTQKGNLLRHIKL
B27: Q9UKT9 (peptide)
chain: FQCPVCGARFTQKGNLLRHIKL
B28: Q9UKT9 (peptide)
chain: FHCSVCGHDFTQKGNLLRHIKL
B29: Q9UKT9 (peptide)
chain: FSCPICGAEFTQKGNLLRHIKL
B30: Q9UKT9 (peptide)
chain: FACNICGANFTQKGNLLRHIKL
B31: Q9UKT9 (peptide)
chain: LDCNQCGFYCTQKGNLLRHIKL
B32: Q9UKT9 (peptide)
chain: FGCPVCGAVFTQKGNLLRHIKL

Target: no compound (DMSO)
Experiment: log2 fold change of degron read counts, EGFP-low vs EGFP+ sorted cells; higher = lower degron-EGFP level without compound (poor expression or instability)
Conditions: compound: DMSO control; 18 h
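Further: jurkat cells carrying a lentiviral library of mutant zinc finger degrons fused to EGFP plus mCherry, mCherry+ cells FACS sorted, degron abundance counted by next-generation sequencing.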

Row | Sequence | log2 fold change of degron read counts
1 | B1 | 0.331
2 | B2 | -0.0759
3 | B3 | -0.0505
4 | B4 | -1.5
5 | B5 | 0.569
6 | B6 | 0.643
7 | B7 | -0.202
8 | B8 | 0.513
9 | B9 | -0.846
10 | B10 | -0.475
11 | B11 | -1.67
12 | B12 | 0.115
13 | B13 | -0.578
14 | B14 | -0.157
15 | B15 | -1.19
16 | B16 | -1.63

Row | Sequence | log2 fold change of degron read counts
17 | B17 | -1.67
18 | B18 | -0.126
19 | B19 | -1.83
20 | B20 | -0.772
21 | B21 | 0.318
22 | B22 | -1.56
23 | B23 | 1.29
24 | B24 | -1.48
25 | B25 | 0.496
26 | B26 | -0.793
27 | B27 | -0.562
28 | B28 | -0.762
29 | B29 | -0.802
30 | B30 | -0.934
31 | B31 | 1.18
32 | B32 | 0.0833

From the supplement of paper PMC12645437, “Orthogonal IMiD-Degron Pairs Induce Selective Protein Degradation in Cells” (ACS Chemical Biology, 2025)
